# Assay results as given in paper PMC4336329 (PLoS ONE, 2015).
# Out of some 310,000 compounds screened, about 14,000 (4.5%) showed an effect of 50% or more. Effects have a minus sign here. Some of the results follow.
# Target: human ether-à-go-go-related gene (hERG) potassium channel (human, UniProt Q12809)
# Assay: primary screen, population patch clamp on CHO cells stably expressing hERG
# 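Further: peak tail current of the secondary pulse compared with the same well before compound.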
# human ether-à-go-go-related gene (hERG) potassium channel, sequence (Q12809 whole entry, looked up): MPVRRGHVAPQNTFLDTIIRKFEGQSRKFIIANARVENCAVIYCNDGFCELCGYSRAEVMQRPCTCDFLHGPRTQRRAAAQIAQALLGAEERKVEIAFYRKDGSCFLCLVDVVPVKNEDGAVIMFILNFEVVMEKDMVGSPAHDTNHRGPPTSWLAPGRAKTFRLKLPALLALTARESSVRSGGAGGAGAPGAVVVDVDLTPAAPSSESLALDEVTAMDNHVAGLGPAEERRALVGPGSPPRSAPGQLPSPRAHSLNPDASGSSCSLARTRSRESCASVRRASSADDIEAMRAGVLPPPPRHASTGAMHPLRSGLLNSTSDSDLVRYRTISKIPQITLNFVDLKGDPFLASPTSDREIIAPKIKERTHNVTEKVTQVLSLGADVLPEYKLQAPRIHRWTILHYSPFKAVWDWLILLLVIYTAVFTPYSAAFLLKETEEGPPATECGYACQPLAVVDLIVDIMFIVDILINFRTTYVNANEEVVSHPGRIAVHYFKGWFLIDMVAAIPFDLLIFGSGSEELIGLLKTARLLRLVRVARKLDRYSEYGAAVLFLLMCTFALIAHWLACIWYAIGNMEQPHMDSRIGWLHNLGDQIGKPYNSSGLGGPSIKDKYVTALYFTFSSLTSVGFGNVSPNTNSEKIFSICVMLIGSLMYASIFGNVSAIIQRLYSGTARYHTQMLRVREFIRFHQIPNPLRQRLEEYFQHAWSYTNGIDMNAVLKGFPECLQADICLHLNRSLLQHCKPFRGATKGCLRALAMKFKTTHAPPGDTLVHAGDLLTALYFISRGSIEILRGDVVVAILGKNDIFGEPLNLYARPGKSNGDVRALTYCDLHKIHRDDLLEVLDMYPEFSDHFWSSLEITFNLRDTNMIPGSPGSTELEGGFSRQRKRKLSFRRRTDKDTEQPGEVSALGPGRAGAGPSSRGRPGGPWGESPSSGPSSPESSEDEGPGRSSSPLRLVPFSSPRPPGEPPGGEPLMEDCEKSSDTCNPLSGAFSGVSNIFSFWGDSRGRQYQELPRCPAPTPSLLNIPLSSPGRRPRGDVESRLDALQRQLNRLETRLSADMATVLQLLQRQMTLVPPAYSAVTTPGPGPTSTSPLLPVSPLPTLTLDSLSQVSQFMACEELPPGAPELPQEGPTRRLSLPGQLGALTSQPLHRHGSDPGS
row,SMILES,"hERG current change (%, negative = inhibition) at 10uM [%]"
1,Cc1c(NC(=O)N(C)C)c(=O)n(-c2ccccc2)n1C,3.75
2,CCOc1ccc2nc(NC(=O)C3CCN(C(=O)c4ccco4)CC3)sc2c1,10.1
3,COc1ccc(C(=O)NC(=S)Nc2cccc3cc(O)ccc23)cc1OC,15.2
4,COc1ccc(NC(C)=O)cc1NC(=O)CN1CCN(CC(=O)Nc2ccccc2Cl)CC1,-53.3
5,COCCCNc1nc2nonc2nc1N(C)CC1CCCN1C (centres unmarked),2.5
6,CN1CCN(c2ccc(NC(=O)Cc3ccccc3)cc2)CC1,-8.92
7,CCC(=O)N1CCc2cc(S(=O)(=O)N3CCc4ccccc43)ccc21,2.61
8,COC(=O)c1cc2ccsc2n1Cc1ccccc1F,-4.64
9,O=C(CSc1nc2c(c(=O)n1-c1ccc(Cl)cc1)SCC2)N1CCCC1,-17.4
10,Cc1ccc(S(=O)(=O)N2CC[C@@H]2C(=O)O)cc1,14
11,CCc1ccc(-c2cc(C)no2)cc1S(=O)(=O)NCc1ccc(OC)c(OC)c1,-10
12,CCN(c1ccc(C)c(C)c1)S(=O)(=O)c1c(C)[nH]c(=O)[nH]c1=O,14.6
13,O=C(CSc1ccc(-c2ccccn2)nn1)c1ccc(F)cc1,-10.4
14,Cc1ccc(CNC(=O)Cn2cncn2)cc1,12.5
15,COc1cccc(NC(=O)N2CCC(C(N)=O)(N3CCCCC3)CC2)c1,6.17
16,CCOc1ccc(N2C(=O)CC(=O)NC2=O)cc1,24.3
17,CCn1c(CC(=O)Nc2ccccc2F)nnc1SCC(=O)Nc1nncs1,1.11
18,Cn1nc(C(F)(F)F)c(-c2ccc(Br)cc2)c1NC(=O)c1nccnc1C(=O)O,17.7
19,O=[N+]([O-])c1cc(-c2ncccn2)cs1,14.7

row,SMILES,"hERG current change (%, negative = inhibition) at 10uM [%]"
1,Cc1[nH]c(=S)c(C#N)c(C)c1C(=O)Nc1ccccc1,15.1
2,CCCCN(CC)CCNC(=O)c1cc2c(-c3ccccc3F)nn(C)c2s1,-66.7
3,O=C(CCc1ccc(Oc2cc([N+](=O)[O-])cc([N+](=O)[O-])c2)cc1)NC1CCCC1,-5.16
4,CCOc1ccc(N2C(=O)C(=O)/C(=C(/O)c3ccccc3)C2c2ccccc2[N+](=O)[O-])cc1 (centres unmarked),13.2
5,O=C1c2ccccc2NC(c2cn[nH]c2-c2ccc(Cl)cc2)N1O (centres unmarked),13.1
6,CCSc1nnc(-c2ccc(Cl)cc2Cl)o1,-1.56
7,CS(=O)(=O)N1CCN(c2ccccc2[N+](=O)[O-])CC1,6.06
8,CC(=O)c1cccc(NC(=O)NNC(=O)c2ccc(Cl)cc2Cl)c1,-6.36
9,CC(=O)c1cc(C#N)c(SCC(=O)Nc2nccs2)nc1C,23.7
10,CC(=O)C12C3C4C(C5C1C3C5(Br)C41OCCO1)C21OCCO1 (centres unmarked),1.34
11,Nc1c(Cl)ncnc1NCCc1ccc(O)cc1,9.93
12,CN(CC(=O)Nc1ccc(SC(F)F)cc1)C1CCCCC1,-70
13,Cc1cc(C(F)F)nn1CC(=O)NCc1ccco1,16.3
14,CCc1ccc(C(=O)Nc2nc3ccccc3[nH]2)cc1,17.2
15,CCOC(=O)c1ccc(NS(=O)(=O)c2cc(-c3nnnn3CC)ccc2OC)cc1,10.6
16,COc1ccccc1/C=C/C=N\N1CCN(Cc2ccccc2Cl)CC1.Cl,7.53
17,Cc1ccc(OCCNS(=O)(=O)c2ccc(N3CCCC3=O)cc2)cc1,9.5
18,Cc1nnsc1C(=O)NC1CCCc2c1cnn2-c1ccc(F)cc1F (centres unmarked),12.5
19,O=C(CSCc1ccccc1)N1CCc2ccccc21,-14.8

row,SMILES,"hERG current change (%, negative = inhibition) at 10uM [%]"
1,CC1Oc2ccccc2N(CC(=O)c2cccc(Cl)c2)C1=O (centres unmarked),-23.2
2,CCC(=O)N1CCN(c2ccc(NC(=S)NC(=O)COc3ccccc3)cc2)CC1,-21.6
3,O=C(O)/C=C/c1cccc2c1OCCO2,-4.71
4,O=C(CSc1nnc(-c2ccco2)n1-c1ccccc1)NCCc1ccccc1,-69.4
5,Oc1c(Br)cc2oc3c(c2c1CNCc1ccccc1)CCCC3,15.5
6,CC1CCN(c2nc3c(c(=O)[nH]c(=O)n3C)n2CC(C)CSc2nnnn2-c2ccccc2)CC1 (centres unmarked),-57.6
7,CCn1c(CNC(=O)c2ccccc2F)nnc1SCc1nc2ccccc2c(=O)[nH]1,0.31
8,CCN(CC)CCC(c1ccc(N(C)C)cc1)c1c(OC)cc(OC)c2c(-c3ccccc3)cc(=O)oc12 (centres unmarked),-24.5
9,O=c1[nH]c(=O)n(CCC2=CCCCC2)c(O)c1/C=N/N1CCOCC1,-21.6
10,O=C(NCCCCc1ccccc1)c1cc([N+](=O)[O-])cc([N+](=O)[O-])c1,-17.5
11,CN(CC(=O)Nc1cccc(S(=O)(=O)N2CCCCC2)c1)Cc1ccc(F)cc1,-20.1
12,O=C(CO/N=C\c1ccccc1)Nc1ccccc1C(=O)N1CCOCC1,20.2
13,O=C(CCN1CCOCC1)N1CCc2c([nH]c3ccccc23)C1c1cccc(Cl)c1 (centres unmarked),-70.5
14,Cc1ccc(S(=O)(=O)N(Cc2ccc(Cl)cc2)c2ccccc2C(=O)NCc2cccnc2)cc1,-52
15,C[C@@H](C(=O)Nc1ccc2c(c1)OCO2)n1c(=O)[nH]c2ccccc2c1=O,20.3
16,CCOc1ccc(N2C(=O)NC(=O)/C(=C\c3cc(OC)c(OC)cc3[N+](=O)[O-])C2=O)cc1,27.1
17,COc1cc(/C=C/C(=O)Oc2coc(CSc3ncccn3)cc2=O)cc(OC)c1OC,31.1
18,Cc1ccc(-c2nc(N)sc2CC(=O)OCC(=O)N2C(C)CCCC2C)cc1 (centres unmarked),-7.22
